# The full ranking holds about 33,000 sequences; the median of “E-score (-0.5 to 0.5)” is about -0.011, and the highest 2% start at about 0.28. This is one part of the list.
# Target: T1, Gcr1 (UniProt P07261)
# T1 sequence: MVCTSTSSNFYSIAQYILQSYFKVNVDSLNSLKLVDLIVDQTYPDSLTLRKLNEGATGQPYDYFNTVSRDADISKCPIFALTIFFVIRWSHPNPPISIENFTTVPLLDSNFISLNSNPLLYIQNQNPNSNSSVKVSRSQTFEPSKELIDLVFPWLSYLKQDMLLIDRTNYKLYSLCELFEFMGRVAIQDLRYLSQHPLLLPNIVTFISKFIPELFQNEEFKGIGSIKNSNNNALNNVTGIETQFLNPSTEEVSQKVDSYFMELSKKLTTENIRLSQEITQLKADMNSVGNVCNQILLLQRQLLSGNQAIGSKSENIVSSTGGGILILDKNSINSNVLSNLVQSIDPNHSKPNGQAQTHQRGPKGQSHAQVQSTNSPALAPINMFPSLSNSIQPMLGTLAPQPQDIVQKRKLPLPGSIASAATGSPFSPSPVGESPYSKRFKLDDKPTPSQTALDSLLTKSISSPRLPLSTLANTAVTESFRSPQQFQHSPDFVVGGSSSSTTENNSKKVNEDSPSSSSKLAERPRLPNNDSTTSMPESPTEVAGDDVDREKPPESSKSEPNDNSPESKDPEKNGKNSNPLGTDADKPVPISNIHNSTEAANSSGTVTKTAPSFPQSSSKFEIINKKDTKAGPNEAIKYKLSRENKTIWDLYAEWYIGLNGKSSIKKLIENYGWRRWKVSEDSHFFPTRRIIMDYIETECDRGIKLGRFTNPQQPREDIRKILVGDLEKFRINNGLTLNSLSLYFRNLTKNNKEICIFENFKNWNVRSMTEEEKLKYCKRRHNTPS
# Assay: PBM E-score (8-mer binding enrichment) (E-score (-0.5 to 0.5)); higher = stronger / more preferred TF binding; most listed sequences are background and not binding sites
# Conditions: protein concentration: 100 nM; construct: GST-full length
# Outline: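 Detection of bound protein used fluorescent anti-GST, with scans normalised by masliner. The proteins were GST-tagged yeast transcription factors applied at about 100-200 nM to universal all-10-mer Agilent arrays made double-stranded by primer extension. Each ungapped eight-base word, pooled with its reverse complement, was scored with an E-score from the Universal PBM Analysis Suite.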
row,Sequence,PBM E-score
1,CACTTTGA,0.0238
2,GAGGGCCC,0.0717
3,AAGCGCCT,0.0782
4,AGCCGGCA,0.102
5,ATGATTTG,-0.0178
6,CATGTTAG,-5e-05
7,ACGCGTGC,0.105
8,AGGGTGGG,0.207
9,ACCAAAGC,-0.0876
10,AGCCAACA,0.266
11,ATCTCAGG,0.101
12,AGAGCGAT,-0.198
13,ATTTGTAG,0.0518
14,ATCACGTA,-0.017
15,GCCACACC,0.035
16,CCTACAAC,0.0249
17,GCACGTCA,-0.218
18,AAGCCACG,0.106
19,AGCGCGAG,-0.138
20,CCATACAC,0.192
21,AACGGCTG,-0.12
22,AAATTGGC,0.0713

row,Sequence,PBM E-score
1,ACAAGATG,0.294
2,ACAAGGAG,0.0618
3,ATTCGCAG,0.151
4,AAGTTAGA,0.173
5,TAATCCGA,0.0297
6,CTTAAAAG,-0.0437
7,CGAGATAG,-0.136
8,ACCAGAAA,0.0905
9,AGGCTCAT,-0.23
10,ACTATCTG,0.0432
11,AAGTGCAT,-0.167
12,CCCTCCAA,-0.0697
13,TTGTAAAA,0.0978
14,ACATCGAG,-0.0044
15,GCGTTAAC,-0.0953
16,CTTTATGC,0.0135
17,ACCTGTAA,-0.0579
18,CCCAGTAA,0.265
19,ACAGAAAT,0.0285
20,TCGAAGAA,-0.148
21,GCCCGTGA,-0.261
22,CCTAGATA,0.0612

row,Sequence,PBM E-score
1,CGGTAACA,-0.115
2,AATAGTCG,0.082
3,GCGAGCCC,-0.139
4,AGGGAGCA,-0.171
5,TTCGTAAA,0.23
6,AGCATTGA,0.00325
7,ACACAACT,0.0269
8,AGCTCATA,-0.0759
9,CGTGACCA,-0.162
10,GCCTAGCC,-0.169
11,AAGAGGCG,0.0559
12,AAGCACTT,-0.17
13,AGAGCCAC,0.13
14,CTGTAGGA,0.0663
15,CCGCACGA,-0.112
16,ATAGCACG,0.131
17,ATGTTACC,0.0433
18,CTAATGAG,-0.0278
19,GTGATCAA,-0.275
20,AGTGCGCG,-0.037
21,CAAATAAA,0.0484
22,ACGCGCCT,0.229

row,Sequence,PBM E-score
1,GTGCGGGA,0.0399
2,AAGCGGTG,-0.142
3,CCTCAAGC,-0.00518
4,GTGGACTA,0.113
5,GGCAGGCA,0.00229
6,CAATAGTC,-0.225
7,ACCGGATA,0.00906
8,AAAACGTT,-0.0204
9,AAGGTATT,-0.119
10,CCCATGAC,-0.131
11,CCACACTA,0.114
12,CCTATGTC,0.172
13,AGCCCCAA,0.164
14,ACTCATCT,-0.0225
15,GATACCCC,-0.0734
16,CTGGAGAA,-0.22
17,CAATTCGG,-0.00575
18,AATCCAGC,0.164
19,CCCCCTAG,-0.194
20,AACTGTTC,-0.0709
21,ACGCGCAG,-0.00268
22,GAAATCGC,0.0189

row,Sequence,PBM E-score
1,AGCGATAC,0.0533
2,CAGATAGG,0.0828
3,AAGTCGAT,-0.119
4,AAATCTCC,-0.14
5,CAGAAAAG,0.104
6,CTGAATAC,0.121
7,TCATGCAA,-0.0976
8,CATTGGCA,0.0197
9,AGTCTTGG,0.0424
10,GGCCAAAC,-0.176
11,CGGCTAGC,-0.209
12,TCCCCGCA,-0.0108
13,AACTCACT,-0.189
14,GTCCGAGA,0.081
15,ATATTCGC,0.15
16,AAGGGGAT,0.149
17,CACATCGA,-0.143
18,CAAAGTTG,-0.0106
19,AAGAACAT,0.057
20,CCAGTCAG,-0.0325
21,GCATGATA,-0.0115
22,ATTAGAGA,-0.0115
